# Measurements taken from the supplement of paper PMC8728848.
# The other results are listed elsewhere or left out.
# What was measured:
# Assay in all cases: glycan array binding signal (z-score within array); higher = stronger binding
# Settings in all cases: glycan notation: IUPAC condensed, linker removed; mutation: Y228A
# [1] = biological target: GalNAc(b1-4)GlcNAc
# In short: (§1)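 Glycan array binding is given as a within-array Z-score, which can be read as non-binding when negative. The arrays, 3228 of them, came from the Consortium for Functional Glycomics database and were retained only where the protein sequence was available. Z-scores were averaged across arrays of the same protein sequence at different concentrations or buffers and across linkers.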
# [2] = biological target: GalNAc(b1-4)GlcNAc(b1-2)Man
# In short: as §1
# [3] = biological target: GalNAc(b1-4)GlcNAc(b1-2)Man(a1-3)[GalNAc(b1-4)GlcNAc(b1-2)Man(a1-6)]Man(b1-4)GlcNAc(b1-4)GlcNAc
# In short: as §1
# [4] = biological target: GalNAc(b1-4)GlcNAc(b1-3)GalNAc(b1-4)GlcNAc
# In short: as §1
# [5] = biological target: GalNAc(b1-4)GlcNAc6S
# In short: as §1
# [6] = biological target: GalNAc(b1-6)GalNAc
# In short: as §1
# [7] = biological target: GalNAc3S(b1-4)GlcNAc
# In short: as §1
# [8] = biological target: GalNAc3S(b1-4)GlcNAc3S
# In short: as §1
# [9] = biological target: GalNAc3S(b1-4)[Fuc(a1-3)]GlcNAc
# In short: as §1
# [10] = biological target: GalNAc4S6S(b1-4)GlcNAc
# In short: as §1
# [11] = biological target: GalNAc6S(b1-4)GlcNAc
# In short: as §1
# [12] = biological target: Glc(a1-4)Glc
# In short: as §1
# [13] = biological target: Glc(a1-4)Glc(a1-4)Glc(a1-4)Glc
# In short: as §1
# [14] = biological target: Glc(a1-6)Glc(a1-6)Glc
# In short: as §1
# [15] = biological target: Glc(a1-6)Glc(a1-6)Glc(a1-6)Glc
# In short: as §1
# [16] = biological target: Glc(b1-4)Glc
# In short: as §1
# [17] = biological target: Glc(b1-6)Glc
# In short: as §1
# [18] = biological target: GlcA(b1-3)Gal
# In short: as §1
# [19] = biological target: GlcA(b1-3)GlcNAc
# In short: as §1
# [20] = biological target: GlcA(b1-6)Gal
# In short: as §1
# [21] = biological target: GlcA3S(b1-3)Gal(b1-4)GlcNAc(b1-2)Man
# In short: as §1
# [22] = biological target: GlcA3S(b1-3)Gal(b1-4)GlcNAc(b1-3)Gal(b1-4)Glc
# In short: as §1
# [23] = biological target: GlcNAc(a1-3)Gal(b1-4)GlcNAc
# In short: as §1
# [24] = biological target: GlcNAc(a1-4)Gal(b1-3)GlcNAc
# In short: as §1
# [25] = biological target: GlcNAc(a1-4)Gal(b1-4)GalNAc
# In short: as §1
# [26] = biological target: GlcNAc(a1-4)Gal(b1-4)GlcNAc
# In short: as §1
# [27] = biological target: GlcNAc(a1-4)Gal(b1-4)GlcNAc(b1-3)Gal(b1-4)Glc
# In short: as §1
# [28] = biological target: GlcNAc(a1-4)Gal(b1-4)GlcNAc(b1-3)Gal(b1-4)GlcNAc
# In short: as §1
# [29] = biological target: GlcNAc(a1-4)Gal(b1-4)GlcNAc(b1-3)Gal(b1-4)GlcNAc(b1-3)Gal(b1-4)GlcNAc
# In short: as §1
# [30] = biological target: GlcNAc(a1-4)Gal(b1-4)GlcNAc(b1-3)Gal(b1-4)[Fuc(a1-3)]GlcNAc(b1-3)Gal(b1-4)[Fuc(a1-3)]GlcNAc
# In short: as §1
binder,measurement,setting,value
"Epa1-NP-mutant-Y228A (Candida glabrata), Q6VBJ0 (protein) MILNPALFLNKCVCIYTTLILLLLTNGGYATSSNDISLASKDPTTFPLGCSPDITTPKKGLSMELYSYDFRKKGSYPCWDAAYLDPNYPRTGYKSHRLLAKVDGVTGNINFYYHATKGCTPQLGHLPASYNYPKPLTMTNFTMLLYGYFRPKVTGFHTFTISADDLLFVNFGAGNAFDCCRRDSSADHFGNYQAYAIWGSKTAKDELTVHLDAGVYYPIRLFYNNREADGALSFTFKTESNENTVSDFSEYFFSLDDTEEGCPGLISYDSSCASVKTSKIIGIDYHTETPNENLVPITKTIYHLGIPCTGTTTTPLCGSGFYDPLANKCVTINTSSTSSVTKTTSHTTSKEVSFHSSISSQKTLIPKSIPSPYGPIKSQSIPTEMETSSEISSSEYAFSDVISTPSHSPYTKKHSSLNSSSYTSTVIHSLTSYSISQGIFSTSLSEQNITSKSSTDKFSTATSMSNNITQSSIIISQFSTNNENYTTTSMHTSSDKISTETLNNSISTTTSILFSNSSTILKNNTTIISSDKDTHYHPVNPTIVCSTNKTEIICASITQPSISNSNNHWSSSVLKFNSTTVRSTLPSSAGSNETSINVPFSSSTESNTSTSSTSTSNSKMVRSTLPSSAGSNETSISVPFSSSTESNTSTSSTSTSNSKMVRSTLPSSAGSNETSINVPFSSSTESNTSTSSTSTSNSKTVRSTPFSSAGIIMTSLSQRNNKSASSYASSNSKCYNTADSCRKVHSTPSYLLTSSYTSEGVDYDCSLVSTKLKINDTNCVNNKHTTKSCLKTSVTTTIPTLEIKTARKSSSNTIGLHSYPTSSPNKSISSAPIIGYISSFKTIKTASPSYQTSDLTTITTITSLNNPGSTAVENTHESNDKSRKTSSNDISSKHSVIKETKDAVESSNKSHQTNTLKCSSIIIASSSHNSYESLGGTTLTLTLSKVYSPQNNDTLPFLEISEVNPSRTVLPESSKMMQYLTSTEERNKTARNTIATNIVSISTFHFEGEGNAIRMGYTQLLLMLIGIIVMNIGT",glycan array binding signal (z-score),[1],0
same,glycan array binding signal (z-score),[2],-0.269
same,glycan array binding signal (z-score),[3],-0.198
same,glycan array binding signal (z-score),[4],-0.27
same,glycan array binding signal (z-score),[5],-0.155
same,glycan array binding signal (z-score),[6],-0.301
same,glycan array binding signal (z-score),[7],-0.321
same,glycan array binding signal (z-score),[8],-0.153
same,glycan array binding signal (z-score),[9],-0.154
same,glycan array binding signal (z-score),[10],-0.147
same,glycan array binding signal (z-score),[11],-0.21
same,glycan array binding signal (z-score),[12],-0.148
same,glycan array binding signal (z-score),[13],-0.123
same,glycan array binding signal (z-score),[14],-0.262
same,glycan array binding signal (z-score),[15],-0.319
same,glycan array binding signal (z-score),[16],-0.246
same,glycan array binding signal (z-score),[17],-0.317
same,glycan array binding signal (z-score),[18],-0.162
same,glycan array binding signal (z-score),[19],-0.182
same,glycan array binding signal (z-score),[20],1.13
same,glycan array binding signal (z-score),[21],-0.24
same,glycan array binding signal (z-score),[22],-0.272
same,glycan array binding signal (z-score),[23],-0.329
same,glycan array binding signal (z-score),[24],-0.129
same,glycan array binding signal (z-score),[25],-0.02
same,glycan array binding signal (z-score),[26],-0.296
same,glycan array binding signal (z-score),[27],-0.065
same,glycan array binding signal (z-score),[28],-0.202
same,glycan array binding signal (z-score),[29],-0.134
same,glycan array binding signal (z-score),[30],-0.13
